# Measured values reported in publication PMC4336329 (PLoS ONE, 2015).
# The campaign covered roughly 310,000 compounds. About 14,000 (4.5%) showed an effect of 50% or more. Effects have a minus sign here. This is one part of the list.
# Biological target: human ether-à-go-go-related gene (hERG) potassium channel (human, UniProt Q12809)
# Test: primary screen, population patch clamp on CHO cells stably expressing hERG
# 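Further: peak tail current of the secondary pulse compared with the same well before compound.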
# Chain of human ether-à-go-go-related gene (hERG) potassium channel (Q12809 whole entry, looked up): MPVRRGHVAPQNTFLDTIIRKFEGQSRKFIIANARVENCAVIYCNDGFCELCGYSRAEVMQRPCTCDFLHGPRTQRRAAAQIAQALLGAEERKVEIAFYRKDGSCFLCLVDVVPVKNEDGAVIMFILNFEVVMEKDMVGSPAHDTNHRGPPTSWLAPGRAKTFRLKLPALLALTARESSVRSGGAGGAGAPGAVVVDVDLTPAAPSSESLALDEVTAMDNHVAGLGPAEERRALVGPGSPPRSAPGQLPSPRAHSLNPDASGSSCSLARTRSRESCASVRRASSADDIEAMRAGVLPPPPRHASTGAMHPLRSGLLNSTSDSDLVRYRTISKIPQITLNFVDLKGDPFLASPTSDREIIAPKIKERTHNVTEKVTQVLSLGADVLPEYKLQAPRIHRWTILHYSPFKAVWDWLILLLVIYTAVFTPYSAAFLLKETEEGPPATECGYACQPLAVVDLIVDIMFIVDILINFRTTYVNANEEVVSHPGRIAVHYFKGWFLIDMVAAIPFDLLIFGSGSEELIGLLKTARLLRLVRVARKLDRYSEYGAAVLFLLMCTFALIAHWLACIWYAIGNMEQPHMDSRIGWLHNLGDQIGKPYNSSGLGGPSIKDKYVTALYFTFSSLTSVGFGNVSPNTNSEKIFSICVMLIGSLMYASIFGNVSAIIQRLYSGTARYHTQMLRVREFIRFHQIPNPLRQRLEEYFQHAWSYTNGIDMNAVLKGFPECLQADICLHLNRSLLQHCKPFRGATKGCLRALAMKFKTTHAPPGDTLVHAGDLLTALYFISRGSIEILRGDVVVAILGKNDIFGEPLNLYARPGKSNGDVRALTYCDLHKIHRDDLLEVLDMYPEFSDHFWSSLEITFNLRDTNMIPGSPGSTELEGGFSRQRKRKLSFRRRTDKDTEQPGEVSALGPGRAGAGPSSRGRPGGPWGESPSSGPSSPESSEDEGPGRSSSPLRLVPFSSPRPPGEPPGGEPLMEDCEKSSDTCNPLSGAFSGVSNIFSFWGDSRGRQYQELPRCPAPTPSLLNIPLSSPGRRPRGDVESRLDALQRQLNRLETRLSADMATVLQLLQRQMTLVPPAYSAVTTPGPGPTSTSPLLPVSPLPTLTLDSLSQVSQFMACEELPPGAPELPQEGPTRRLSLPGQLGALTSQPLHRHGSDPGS
row,SMILES,"hERG current change (%, negative = inhibition) at 10uM"
1,CCCC(OC(=O)CN1C(=O)COc2ccccc21)C(=O)NC1CCCC1 (centres unmarked),2.25%
2,CCc1ccc(NC(=O)CN(C(=O)N2CCN(CC)CC2)S(=O)(=O)c2ccc(C)cc2)cc1,9.35%
3,COc1ccccc1C(=O)NCC(=O)NC(C)CCc1ccccc1 (centres unmarked),1.99%
4,COc1ccc(-c2csc3nc(C)n(-n4cccc4)c(=O)c23)cc1,8.94%
5,CSc1ncccc1C(=O)OCC(=O)Nc1ccc2c(c1)OCO2,26.1%
6,Cc1cccc(NC(=O)c2cc(S(=O)(=O)N3CCc4ccccc43)cn2C)c1,15.9%
7,CN(C)CCCNC(=O)C(=O)Nc1ccc2c(c1)N(S(=O)(=O)c1cccs1)CCC2,-21.4%
8,CCN(CC)S(=O)(=O)c1ccc(NC(=O)CCNC(=O)c2ccccc2)cc1,1.57%
9,COc1ccc(NC(=O)CN(C)C(=O)CSc2ccc3c(c2)OCCO3)cc1,0.83%
10,CCOC(=O)N1CCc2c(sc3c2c(=O)n(-c2ccc(CC)cc2)c(=O)n3CC(=O)NCC2CCCO2)C1 (centres unmarked),2.84%
11,Cc1ccc(NC(=O)NCC2CCN(Cc3cccc(Cl)c3)CC2)cc1Cl,-19.7%
12,O=C(CCl)Nc1cccc(-c2cnc3ccccc3n2)c1,-26.4%
13,O=C1NNC(c2ccccc2)=N/C1=C\c1ccco1,1.66%
14,O=C(CCc1nc2ccccc2c(=O)[nH]1)NNC(=O)COc1cccc(F)c1,-1.88%
15,CCOC(=O)/C=C1\SCC(=O)N1CC(=O)NC(c1ccccc1)c1ccccc1,-52.2%
16,C#CCOCCOCCOCCNc1nc(N2CCN(C(=O)CCCCCCCCCCNC(=O)[C@@H](CCC(=O)O)n3cc(CCCCCN)nn3)CC2)nc(N2CCN(C(=O)CCCCCCCCCCNC(=O)[C@H](CO)n3cc(CCCSC)nn3)CC2)n1,11.9%
17,CCOC(=O)c1c(C)nc2sc3c(=O)n(-c4ccc(OC)cc4)nnc3c2c1-c1ccc(OC)cc1,5.32%
18,O=c1c2[nH]c3cccc(Cl)c3c2ncn1CC1CCCO1 (centres unmarked),-9.51%
19,Cc1nc2ccccc2c(=O)n1/N=C/c1cccs1,-8.04%
20,Cc1cc2c(cc1C)/C(=C\C(N)=O)NC(C)(C)C2,-5.01%
21,COc1ccc2c(c1)C(=NO)c1cc(OC)ccc1-2,6.05%

row,SMILES,"hERG current change (%, negative = inhibition) at 10uM"
1,CCCCNC(=O)OC1CCS(=O)(=O)C1 (centres unmarked),18.9%
2,Cc1ccc(/C=N\NC(=O)c2cc(OCC(F)(F)F)ccc2OCC(F)(F)F)cc1,9.91%
3,COc1ccc(-c2noc(CSc3nc4sc(C)c(C)c4c(=O)n3-c3ccccc3)n2)cc1OC,0.856%
4,CC(=O)c1cccc(NC(=O)c2cc(=O)[nH]c3ccccc23)c1,4.05%
5,COC(=O)c1nc2n(n1)C(c1cccc(Cl)c1)C1=C(CC(C)(C)CC1=O)N2 (centres unmarked),1.16%
6,O=C(Cc1ccccc1)Nc1ccc2oc(=O)ccc2c1,14.3%
7,CC(C)(C)NC(=O)C(OC(=O)c1cccs1)c1ccccc1 (centres unmarked),58.8%
8,CCCN1CCN(C(=O)Cn2cccc2C(=O)c2ccccc2)CC1,-18.1%
9,O=C(O)C1CCCN1S(=O)(=O)c1ccc2c(c1)CCC2 (centres unmarked),-48.8%
10,O=C(CCS(=O)(=O)c1ccccc1)NC1CCCC1,-13.4%
11,COc1ccccc1CC(=O)N1CCN(c2cccc(Cl)c2)CC1,-1.64%
12,COc1ccccc1-c1cc(C(=O)NCc2ccc(F)cc2)no1,-5.1%
13,Cc1ccc(N(CC(O)CON=C2c3ccccc3-c3ccccc32)S(C)(=O)=O)cc1 (centres unmarked),15.5%
14,COc1ccc(Nc2nc(C)nc3c2nnn3Cc2ccccc2Cl)c(OC)c1,14.8%
15,Cc1sc(NC(=O)Cc2ccc3c(c2)OCO3)nc1-c1ccc2c(c1)CCN2C(=O)c1ccccc1F,-0.586%
16,CC(C)(C)NC(=O)COC(=O)c1c2c(nc3ccccc13)CCC2,18.1%
17,COc1ccc(/C=N/n2cnnc2)cc1Br,5.73%
18,COc1ccc(-c2noc(CN(C(=O)C(C)(C)C)C(C)C)n2)cc1,6.61%
19,Cc1c(NC(=O)CCSCCc2ccccn2)cccc1[N+](=O)[O-],-15%
20,Cn1cc(/C=C(\NC(=O)c2ccccc2Cl)C(=O)NCCCn2ccnc2)c2ccccc21,8.3%
21,COc1n[nH]c2nncnc12,2.19%

row,SMILES,"hERG current change (%, negative = inhibition) at 10uM"
1,CC(NC(=O)C1CCC(C(C)(C)C)CC1)C(c1ccccc1)N1CCOCC1 (centres unmarked),-11.1%
2,Cc1cc(C(=O)Nc2c[nH]c(=O)[nH]c2=O)ccc1[N+](=O)[O-],23.2%
3,O=C(N/N=C/c1cccc(O)c1)c1ccc(NC(=O)c2cccc([N+](=O)[O-])c2)cc1,15.7%
4,CCCN(CC(=O)Nc1ccccc1OC)C(=O)c1ccc2[nH]c3c(c2c1)CC(C)CC3 (centres unmarked),-3.74%
5,CCNC(=S)N/N=C/c1cn(Cc2ccccc2F)c2ccccc12,5.02%
6,CCC1Sc2ccccc2N(CC(=O)NCCC2=CCCCC2)C1=O (centres unmarked),-0.692%
7,C=C1CCN(c2ccc(C(=O)NCCC)cc2[N+](=O)[O-])CC1,-48.3%
8,CCCc1cc(C(=O)N2CCCC(Cc3cccc(Cl)c3)(C(=O)OCC)C2)n(C)n1 (centres unmarked),-20.4%
9,COc1ccccc1NC(=O)c1ccc2c(c1)N(CC#N)C(=O)C(C)(C)O2,-1.23%
10,C#CCNC(=O)C1=C[C@H](c2ccc(C(F)(F)F)cc2)[C@@H](CCCO)[C@H](OCC)O1,-25%
11,CCCCS(=O)(=O)N1CCN(S(=O)(=O)c2cccs2)CC1,12.1%
12,CCc1ccc(N2C(=O)CC(N3CCN(Cc4ccc5c(c4)OCO5)CC3)C2=O)cc1 (centres unmarked),-26.4%
13,CN(C)/C=C/C(=O)c1nnn(C2CCCCC2)c1NC1CCCCC1,-46.4%
14,CSc1n[nH]c2nc3c(c(=O)n12)C1(CCCCC1)Cc1ccccc1-3,-13%
15,O=C(O)c1cc(Cl)c(Cl)cc1C(=O)Nc1cccc2cccnc12,10.7%
16,COc1ccc(OC)c(NC(=O)CNC(=O)Cn2cnc3ccccc3c2=O)c1,5.82%
17,CC(C)n1cc(CN2CCCC(CNS(=O)(=O)c3cccc4cccnc34)C2)cn1 (centres unmarked),-0.6%
18,CN(C)c1ccc2c3c(ccc(N(C)C)c13)C(=O)OC2,-59.1%
19,c1ccc2oc(-c3[nH]ncc3CN(Cc3ccncc3)CC3CCCO3)cc2c1 (centres unmarked),-22.6%
20,COc1ccc(NC(=O)C(=O)N/N=C\c2ccc(CNC(=O)C(=O)Nc3ccc(C)c(C)c3)o2)c(OC)c1,9.12%
21,Cn1c(SCc2ccc(Cl)cc2Cl)nc(C(F)(F)F)cc1=O,12.4%

row,SMILES,"hERG current change (%, negative = inhibition) at 10uM"
1,CC(=O)OC(C(=O)NC1CCCCC1)c1cccc(C)c1 (centres unmarked),1.79%
2,Cc1ccc(C2=NS(=O)(=O)N(C)C(C(=O)NCc3ccccn3)=C2)cc1,-22.6%
3,COc1cc(NC(=O)N[C@H](C(=O)O)C(C)C)cc(OC)c1,4.74%
4,Nc1ccc(S(=O)(=O)Nc2ccc(C(=O)c3ccccc3)cc2)cc1,-2.92%
5,COc1ccc(C(=O)NC(=S)NNC(=O)Cc2cccs2)cc1,17%
6,O=C(CSc1nnc(CNC(=O)c2c(F)cccc2Cl)o1)NCc1ccccc1,9.37%
7,Cc1cccc(N2CCN(C(=O)/C=C/c3cccs3)CC2)c1C,-23.9%
8,Cc1ccc(S(=O)(=O)NC2c3cccc4cccc(c34)C2Sc2ncccn2)cc1 (centres unmarked),0.979%
9,O=C(O)c1ccc2c(c1)C(=O)N(c1cccc3ccccc13)C2=O,-11.4%
10,COc1ccc(N2CCN(C(CNC(=O)OCc3ccccc3)c3ccco3)CC2)cc1 (centres unmarked),-27.4%
11,Cc1nn(Cc2ccccc2Cl)c(C)c1C(=O)OCC(=O)NC1CCCC(C)C1C (centres unmarked),5.15%
12,CC(=O)c1ccc(NC(=O)C(C)OC(=O)c2cccc(-n3cnnn3)c2)cc1 (centres unmarked),-13.7%
13,C[C@@H](C(=O)NCCc1c[nH]c2ccccc12)[C@H]1C[C@]1(C)[C@H](NC(=O)OCc1ccccc1)c1ccccc1,-3.24%
14,CN(C)S(=O)(=O)c1ccc(Cl)c(NC(=O)CSc2nc3c(cc2C#N)C(=O)CC(C)(C)C3)c1,-65.3%
15,Cc1noc(C)c1S(=O)(=O)NC1CCN(Cc2ccccc2)CC1,3.28%
16,COc1ccc(N(C(=O)CNC(=O)c2ccco2)C(C(=O)NCC2CCCO2)c2ccc(OC)c(OC)c2)cc1 (centres unmarked),24.5%
17,CCc1ccc(CNC(=O)CCCC(=O)n2nc(C)c3ccccc32)cc1,16.9%
18,C[C@@H]1CC[C@@]2(O[C@H](CCO)C[C@@H](O)[C@@H]2O)O1,7.47%
19,CCOC(=O)CCC(=O)c1c(C)oc2ccc(OC)cc12,-57.2%
20,Cc1c(N2C(=O)c3ccc4c5c(ccc(c35)C2=O)CC4)c(=O)n(-c2ccccc2)n1C,9.84%
